Data: PubChem BioAssay AID760 (NMMLSC, 2007)
Screen size: about 190,000 compounds; about 360 (0.19%) were called active. Inconclusive means that the source gave no clear call. Such entries were picked first, then a sample of the others.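 The calls were made as follows: active = GTP binding activity at least 20 points away from 100%, either lowered or raised; inconclusive = signal likely due to the compound's own green fluorescence; inactive = the rest.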

molecular target: Ras-related protein Rab-2A (Canis lupus familiaris) (UniProt P61105); experiment: Rab2 wt fluorescent GTP binding changes, either direction – biochemical, dog, bead-based flow cytometry, multiplex, primary screen (AID 760); details: GST-Rab2 wt beads, Bodipy-GTP binding, at 10 µM;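 also: 0% = beads with excess unlabeled GTP and 100% = no-compound control corrected for plate trend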

Structure (SMILES) | GTP binding activity
CCOc1ccccc1CNCc1ccc(F)cc1 | inactive: 104%
CCOC(=O)N1CCC2(CC1)C(C#N)=C(N)OC1=C2C(=O)CC(C)C1 (stereo not given) | inconclusive: 102%
O=C1N/C(=C/c2ccc(N3CCOCC3)o2)C(=O)N1c1cccc(Cl)c1 | inactive: 99%
CCN=C1S/C(=C\c2cn(CC)c3ccccc23)C(=O)N1CC | inactive: 102%
O=C(NNC(=O)C1CCCN(S(=O)(=O)c2ccc3ccccc3c2)C1)C1CC1 (stereo not given) | inactive: 97%
Cc1cc(C)cc(N(CC(=O)NCCSc2ccccn2)S(=O)(=O)c2ccccc2)c1 | inconclusive: 99%
COc1ccccc1/C=C/C(=O)OCc1nc2ccccc2c(=O)[nH]1 | inactive: 94%
C=CCNC(=S)N/N=C/c1ccc(OCc2ccccc2Cl)cc1 | inactive: 101%
COc1ccc(-c2cc(=O)c3c(OC)c(OC)c(OC)c(OC)c3o2)cc1OC | inconclusive: 94%
CN=c1scc(-c2ccccc2F)n1/N=C(\C)c1cccnc1 | inactive: 97%
CCOC(=O)C(C)Sc1nc(=O)n2cc(C)ccc2n1 (stereo not given) | inconclusive: 97%
COc1ccc(CCn2c(C(C)C)nc3c(c(=O)c4ccccc4n3C)c2=O)cc1 | active: 77%
S=C(NCc1ccc(Cl)cc1Cl)NC1CCCCC1 | inactive: 98%
O=C(NCc1ccccn1)c1cc2cc(Br)ccc2oc1=O | inconclusive: 101%
O=C(COC(=O)c1ccccc1C(=O)c1ccc(Cl)cc1)NCC1CCCO1 (stereo not given) | inconclusive: 94%
CCCCCCn1cnc2c(c1=O)c1nc3ccccc3nc1n2/N=C/c1ccco1 | inconclusive: 93%
O=C(CSCc1c(Cl)cccc1Cl)Nc1ccccc1C(=O)N1CCOCC1 | inconclusive: 106%
Cc1ccc(O)c(C(=O)c2cnn(C(=O)Cc3csc(C)n3)c2)c1 | inactive: 85%
O=C(COc1ccccc1C(=O)N/N=C\c1ccc(O)c(O)c1)N/N=C/c1ccc(O)c(O)c1 | inconclusive: 77%
COc1ccc(NC(=O)C2CCCN2S(=O)(=O)c2ccc3c(c2)CCC(=O)N3)cc1 (stereo not given) | inconclusive: 100%
O=C(CC(=O)c1ccccc1)Nc1ccc2c(c1)OCCO2 | inconclusive: 102%
Cc1ccc(-c2ccnc3nc(-n4cccc4)nn23)o1 | inactive: 97%
CC(=O)c1ccc(NC(=S)Nc2cccc(Cl)c2C)cc1 | inconclusive: 96%
c1cncc(-c2nnc(C3CCCCC3)o2)c1 | inconclusive: 105%

Structure (SMILES) | GTP binding activity
COCc1c(Br)c(C)nc(OCC(=O)N/N=C/c2cc(C)n(-c3ccc([N+](=O)[O-])cc3)c2C)c1C#N | inactive: 98%
O=C(O)c1csc(Cc2ccccc2)n1 | inconclusive: 109%
COc1ccc(Cl)cc1NC(=O)CN1c2ccccc2CC1C (stereo not given) | inconclusive: 88%
COc1cc2[nH]c(=S)nc(NCCc3ccc(S(N)(=O)=O)cc3)c2cc1OC | active: 37%
CCCc1nnc(SCC(=O)N2CCCC2)n1Cc1ccco1 | inactive: 98%
Cc1cc(C(=O)Nn2c(-c3ccncc3)nc3ccccc3c2=O)ccc1[N+](=O)[O-] | inactive: 91%
O=C(/C=C/c1ccccc1)NC(NC(=S)Nc1cccc(O)c1)C(Cl)(Cl)Cl (stereo not given) | inactive: 95%
COc1ccc(NC(=O)/C(=C/c2cccnc2)NC(=O)c2cccs2)cc1 | inactive: 97%
CSc1ncccc1C(=O)Nc1nnc(C2CC2)s1 | inactive: 95%
COc1ccc(-c2cnnc(N/N=C/c3ccc(OC)c(OC)c3)n2)cc1 | inconclusive: 110%
Cc1ccccc1NCc1nnc2n1CCCCC2 | inactive: 99%
COc1cc(OC)c(C(=O)N2CCCC2)cc1OC | inactive: 98%
COc1ccc(C2N=C(c3ccccc3)C(C)(C)N2O)cc1OC (stereo not given) | inactive: 98%
O=C(N/N=C1\CCSC1)c1cc(Cl)ccc1O | inconclusive: 88%
NC(=O)c1nnn(-c2nonc2N)c1-c1ccc([N+](=O)[O-])cc1 | inactive: 101%
COc1ccc(NC(=O)COC(=O)c2ccco2)c([N+](=O)[O-])c1 | inconclusive: 96%
CC1(C)CC(=O)C=C(Nc2ccccc2O)C1 | inconclusive: 105%
O=C(CCC(=O)OCc1ccc(Br)cc1)Nc1ccccc1 | inactive: 98%
CCn1cc(C(=O)NCc2ccco2)c(=O)c2cc(S(=O)(=O)N3CCCCCC3)ccc21 | inconclusive: 92%
O=[N+]([O-])c1cccc(S(=O)(=O)N2CCCC2)c1 | inconclusive: 121%
O=C(CCC1CCCCC1)NNC(=O)NC12CC3CC(CC(C3)C1)C2 | inactive: 101%
Cc1ccc(OCC(=O)Nc2ccc(-c3nnc(-c4ccco4)o3)cc2)cc1 | inconclusive: 108%
COCCn1c(SCC(=O)OC(C)C)nnc1-c1ccccc1 | inconclusive: 103%
Cc1cc([N+](=O)[O-])nn1CC(=O)Nc1sc2c(c1C(N)=O)CCCC2 | inconclusive: 80%

Structure (SMILES) | GTP binding activity
Cc1ccc(N(C(=O)C2CCCC2)C2C=CS(=O)(=O)C2)cc1 (stereo not given) | inactive: 99%
COC(=O)c1ccc(C)c(NC(=O)Cc2coc3cc(OC)ccc23)c1 | inconclusive: 94%
COc1ccc(CNC(=O)COC(=O)c2ccc(Br)cc2)cc1 | inactive: 92%
CCOC(=O)NC(c1ccc(C(C)C)cc1)C(Cl)(Cl)Cl (stereo not given) | inconclusive: 96%
CC(C)(C)NC(=O)CCN(/N=C/c1ccc([N+](=O)[O-])o1)C1=NS(=O)(=O)c2ccccc21 | active: 45%
O=C1C2C3C=CC(C3)C2C(=O)N1CNc1ccc(O)cc1 (stereo not given) | inconclusive: 88%
COc1cccc(/C=C/C(=O)Nc2ccccc2N2CCOCC2)c1 | active: 51%
Cc1ccc(N2C(=O)CC(Sc3ccccc3C(=O)O)C2=O)cc1C (stereo not given) | inactive: 90%
CC(C)(C)NC(=O)CSc1nc(N)c(-c2ccccc2)c(=O)[nH]1 | inconclusive: 95%
O=C1CC(C2CCCO2)C(=O)N1c1ccc(Cl)c(Cl)c1 (stereo not given) | inactive: 98%
CCOC(=O)c1cnc(-n2[nH]c(C)cc2=O)[nH]c1=O | inconclusive: 92%
O=C(CCNC(=O)c1ccccc1)N=Nc1c(O)[nH]c2ccccc12 | inconclusive: 94%
O=C(CCCCn1c(=S)[nH]c2ccsc2c1=O)NCc1ccc2c(c1)OCO2 | inconclusive: 94%
COc1ccc(/C=C/c2nc3cc(-c4ccccc4)ccc3o2)cc1O | inconclusive: 95%
COc1ccc(NC(=O)CSc2nnc(C3CC3)n2N)cc1 | inconclusive: 106%
Cc1csc(N(C(=O)Cc2ccccc2F)c2ccccc2)n1 | inconclusive: 99%
COc1cc(NC(=O)C2CCN(S(=O)(=O)c3cnc[nH]3)CC2)cc(OC)c1OC | inconclusive: 104%
COc1cc(N2CCCC2)c(OC)cc1/C=C(/C#N)c1cccc(F)c1 | inconclusive: 146%
COc1cccc(NC(=O)c2ccc3c(SCC(=O)O)c4c(nc3c2)CCCC4)c1 | inconclusive: 85%
CCCCCC1CCC(c2n[nH]c(=S)n2C)CC1 (stereo not given) | inactive: 92%
Cc1c(C(c2ccccc2O)c2c(C)n(C)n(-c3ccccc3)c2=O)c(=O)n(-c2ccccc2)n1C | inconclusive: 90%
c1ccc(CNC2=NCCC2)nc1 | inconclusive: 106%
O=C(CCCn1c(=O)[nH]c2ccc(Br)cc2c1=O)NCc1ccc(Cl)cc1 | inactive: 97%
Cc1cc(C)c(S(C)(=O)=O)c(Oc2ccc(C(C)(C)C)cc2)n1 | inactive: 102%

Structure (SMILES) | GTP binding activity
Cc1occc1C(=O)NCc1ccccn1 | inconclusive: 108%
COc1ccc(N(CC(=O)Nc2ccccc2C(=O)NCCc2ccccc2)S(C)(=O)=O)cc1OC | inactive: 102%
COC(=O)c1c(NC(=O)/C=C/C(=O)O)sc(C)c1-c1ccc(C)c(C)c1 | inconclusive: 90%
O=C(NNC(=S)NCc1ccc(Cl)cc1)c1ccc(Br)o1 | active: 77%
COC(=O)CSc1ccc2nnc(-c3ccc(F)cc3)n2n1 | inconclusive: 111%
COc1ccc(Cn2c(O)c(/C=N/NC(=O)c3cccnc3)c3ccccc3c2=O)cc1 | inactive: 83%
CC1Cc2ccccc2N1C(=O)COC(=O)CCc1nc2ccccc2c(=O)[nH]1 (stereo not given) | inactive: 99%
Cc1nn(-c2ccc(F)cc2)c(Cl)c1/C=C(\CCC(=O)O)c1nc2ccccc2s1 | active: 76%
Cc1csc(SCC(=O)N(C)CC(=O)Nc2ccc(F)cc2)n1 | inactive: 95%
CCOCC(=O)Nc1nnc(C2CCCCC2)s1 | inconclusive: 103%
COc1cccc(-c2cc(C(F)(F)F)nc(-n3ccc([N+](=O)[O-])n3)n2)c1 | inconclusive: 91%
O=C(O)c1cccc(NC(=S)N/N=C/c2cccc(O)c2)c1 | inconclusive: 88%
Cn1c(N)c(C(=O)NCc2ccccc2)sc1=S | inconclusive: 100%
O=C(CN1CCOCC1)Nc1ccccc1NC(=O)C1CCN(c2ncccn2)CC1 | inconclusive: 98%
Cc1occc1C(=O)NNC(=O)c1ccc(Br)o1 | inactive: 99%
CC(=O)OC(C(=O)NC1CCCCC1)c1ccc(Cl)c(Cl)c1 (stereo not given) | active: 33%
CC1CCN(c2ncccc2C(=O)O)CC1 | active: 130% [activator]
CN1C(=O)NC(c2ccc(O)cc2)C2=C1CN(c1cccc3ccccc13)C2=O (stereo not given) | inconclusive: 94%
Cc1nn(Cc2ccccc2Cl)c(Cl)c1C(=O)NCCc1ccccc1 | inconclusive: 101%
CCCc1cc(=O)oc2cc(C)cc(OC(=O)c3ccco3)c12 | inconclusive: 90%
COC(=O)NCc1ccc(CNC(=O)OC)cc1 | inconclusive: 108%
CC(C)(C)C(=O)Cn1ncc(Br)c(Br)c1=O | inactive: 101%
COc1ccc(/C=C/C(=O)NC(=S)Nc2cc3oc4ccccc4c3cc2OC)cc1 | inconclusive: 102%
